The target of this test is hemagglutinin of influenza A virus H1N1 A/PR/8/1934 (influenza A virus A/PR/8/1934 (H1N1)) (UniProt P03452). Nature of the test: cell-based or functional assay.

B1: monoclonal antibody 39.29 NWPP (antibody, V domains shown)
VH: EVQLVESGGGVVQPGKSLRLSCAASGLTFSSYAVHWVRQAPGKGLEWVTLISYDGANQYYADSVKGRFTISRDNSKNTVYLQMNSLRPEDTAVYYCAVPGPVFGIFPPWSYFDNWGQGILVTVSS
VL: EIVLTQSPATLSVSPGERATLSCRASQVISHNLAWYQQKPGQAPRLLIYGASTRASGIPARFSGSGSGTDYTLTITSLQSEDFAVYYCQHYSNWPPRLTFGGGTKVEIK
Take B1: the in vitro IC50 (neutralization of virus infection of MDCK cells) was 2 nM.
